# According to article PMC10668032:
# This is one part of the list. At the low end of the ranking the order means little.
# Biological target: SIX1-Q177R homeodomain (UniProt Q15475)
# Assay: universal protein binding microarray
# Details: Universal all-10-mer PBM (8x60K, AMADID 030236), 300 nM GST-tagged protein, Alexa Fluor 488 anti-GST; buffer, salt, pH and temperature not stated; high values mean tight binding; most listed sequences are background and not binding sites; double strand, one strand shown
row,Sequence,binding signal
1,CTTGTAAC,0.0801 E-score
2,CGTCGACC,0.0576 E-score
3,AGTTCTTA,-0.278 E-score
4,GCGAGGCC,-0.16 E-score
5,GGGCTGAC,0.0141 E-score
6,AGACTTTA,-0.209 E-score
7,GATCACAC,0.324 E-score
8,TATGCTGA,-0.237 E-score
9,AAAAGAGA,-0.157 E-score
10,GTCAGTTA,0.0151 E-score
11,CCGAAATA,-0.0825 E-score
12,GCGTCACA,0.0925 E-score
13,ACTAGGTC,-0.096 E-score
14,TGTTAAAA,0.129 E-score
15,GTGTGTGA,0.229 E-score
16,ATCAATAG,-0.0116 E-score
17,CAGAATTC,-0.228 E-score
18,CTCTTGAC,0.0339 E-score
19,CTTTCCTA,-0.258 E-score
20,ACTAGGAA,-0.0656 E-score
21,AGCTGAGC,-0.0541 E-score
22,AGCAATAC,-0.0178 E-score
23,AGAGGCAC,-0.00975 E-score
24,AAGTTCCT,-0.213 E-score
25,GAATCCCC,0.0877 E-score

row,Sequence,binding signal
1,ATTAGCGC,-0.0939 E-score
2,AGTATATG,0.00625 E-score
3,CCACGAGC,0.00088 E-score
4,CACGCAGC,0.241 E-score
5,AGTAAGAA,-0.164 E-score
6,TCAGGGAA,-0.0904 E-score
7,AGGCCGAT,-0.0773 E-score
8,CTATCGAA,0.0406 E-score
9,AACCATCC,-0.0661 E-score
10,GAGGGTTA,0.185 E-score
11,AATCTTAC,-0.111 E-score
12,ATCTTCCG,-0.0845 E-score
13,AATGATGA,-0.224 E-score
14,GAAGTAAA,-0.263 E-score
15,CCCTCATA,0.0592 E-score
16,CTCAGAGA,0.00128 E-score
17,ACGTGCGC,-0.0827 E-score
18,CAATGACG,0.0239 E-score
19,GACGTACC,-0.0822 E-score
20,CGCGTCGC,0.0318 E-score
21,GCAGTTCC,-0.201 E-score
22,CACGGCTA,0.182 E-score
23,CACAGGAA,0.0158 E-score
24,AGCGAGAC,-0.139 E-score
25,ATCTCCGC,-0.024 E-score

row,Sequence,binding signal
1,CGTTCGAC,-0.0176 E-score
2,AAACCATC,0.0425 E-score
3,GTCACGGA,-0.00507 E-score
4,CACTGATG,0.106 E-score
5,CACGACGG,0.182 E-score
6,GGGTAGAA,0.105 E-score
7,ACCACTGG,0.153 E-score
8,CAGTAGGA,-0.186 E-score
9,ACCTAAAC,0.0688 E-score
10,TATCGCCA,-0.0468 E-score
11,GGTAACCA,0.102 E-score
12,ACGGTGCA,0.293 E-score
13,ATAGATAC,-0.0538 E-score
14,GTACGGGA,0.07 E-score
15,CGAAGGCG,-0.103 E-score
16,GGTGCCAC,0.195 E-score
17,CTGATCAC,0.0105 E-score
18,ATACCATC,0.151 E-score
19,ACCAAGAA,-0.0663 E-score
20,CTAAGAAG,-0.00205 E-score
21,TACACTGA,0.394 E-score
22,ACGATCGC,-0.182 E-score
23,CGCGAAGC,-0.0589 E-score
24,CAGTTGGC,0.0791 E-score
25,CCAAGTGC,-0.104 E-score

row,Sequence,binding signal
1,ATAATGAT,-0.0811 E-score
2,AAAGCATG,-0.0841 E-score
3,ATTGGGGC,-0.0863 E-score
4,CACCGGCC,0.251 E-score
5,AGCTTCCG,-0.242 E-score
6,AGAAGCAT,-0.167 E-score
7,AATCAGCA,-0.103 E-score
8,GCTTTCGA,-0.142 E-score
9,AGCTGGAG,0.0257 E-score
10,CCCTAGCC,0.0717 E-score
11,AATATGCA,-0.111 E-score
12,TAGAACCA,-0.212 E-score
13,ATTGCTCG,-0.232 E-score
14,GCAGTAAA,-0.206 E-score
15,GGATACAC,0.424 E-score
16,CCGATGGA,-0.117 E-score
17,GATGCTAC,-0.0375 E-score
18,CAATGAAG,-0.153 E-score
19,AATTTGTC,-0.171 E-score
20,CGAACAAA,-0.0337 E-score
21,AATTCGTG,0.0507 E-score
22,CAACGGCG,-0.0669 E-score
23,AATGAGAG,-0.166 E-score
24,ATGTTCAC,0.00112 E-score
25,GAAGCCTA,-0.0239 E-score

row,Sequence,binding signal
1,GGGACCCA,0.133 E-score
2,TCCCTTCA,-0.1 E-score
3,CCAGATGA,-0.0229 E-score
4,CACGGGCA,0.131 E-score
5,TTGTCAAA,0.00449 E-score
6,TCGTATCA,0.0533 E-score
7,GAAATTCA,-0.0836 E-score
8,AAGTTTGC,-0.125 E-score
9,ATCCTCCC,0.103 E-score
10,CAGCACGC,-0.00891 E-score
11,AGTGTATG,0.36 E-score
12,GTGTGCAA,0.252 E-score
13,ATGTGTCG,0.188 E-score
14,CAACTAAA,-0.173 E-score
15,GCATGGCC,-0.113 E-score
16,AGCATGCT,-0.202 E-score
17,ACTAGTAG,-0.116 E-score
18,ATGTACCA,-0.186 E-score
19,AATAGGAT,-0.104 E-score
20,GGCACCCA,0.0325 E-score
21,ACCCCTCC,0.284 E-score
22,CTCACCGA,0.0324 E-score
23,AGGAGAGC,-0.0844 E-score
24,AGACCTGG,-0.109 E-score
25,CCGTACGC,0.11 E-score

row,Sequence,binding signal
1,AGAAAAGC,-0.271 E-score
2,AAGTAGGG,0.0659 E-score
3,ACGTGGCG,-0.00727 E-score
4,ATCGAGAA,-0.108 E-score
5,AAAGGATG,-0.0679 E-score
6,CAACTAGA,-0.0489 E-score
7,TGGACAAA,-0.131 E-score
8,GCGAACAA,-0.073 E-score
9,CCCCGGAA,0.089 E-score
10,CTTCCCCC,-0.0757 E-score
11,GTTCGGTA,0.156 E-score
12,ATCACACG,0.318 E-score
13,AGAGAGGC,-0.12 E-score
14,CTGTCCAA,-0.0628 E-score
15,GGGTGTCA,0.492 E-score
16,CGGTGAAC,0.0865 E-score
17,CACGCACG,0.304 E-score
18,AACAGCGT,0.00692 E-score
19,CGTGCGTA,0.0925 E-score
20,AGGGAAAC,-0.182 E-score
21,GTGCAACA,0.292 E-score
22,CAGAAACA,0.132 E-score
23,TAAGCGTA,-0.215 E-score
24,ACGCTTCG,0.0393 E-score
25,CAAATCTG,-0.107 E-score

row,Sequence,binding signal
1,CTTAGAAA,-0.312 E-score
2,CGGGTAAC,0.2 E-score
3,ATAAGGTC,0.0187 E-score
4,CAGCGTAG,-0.0333 E-score
5,AGCGTTAA,-0.11 E-score
6,AAACAGCA,-0.237 E-score
7,AGCGCCTA,-0.0741 E-score
8,TATAGAAA,-0.0952 E-score
9,AGGGGATG,-0.0313 E-score
10,AAAGCGAA,-0.117 E-score
11,AGTCCCGC,-0.212 E-score
12,ACCCACGA,0.153 E-score
13,ACCACCCC,0.249 E-score
14,GCAGACAC,0.352 E-score
15,ACAACTAG,-0.128 E-score
16,GTCGCAAC,-0.121 E-score
17,ACAGTGGG,0.138 E-score
18,ACGTCTCC,-0.0601 E-score
19,AGGAAGCA,-0.0691 E-score
20,CACCTCTA,0.295 E-score
21,AGGACTCA,-0.224 E-score
22,CGAGAATC,-0.0521 E-score
23,CCTGCCCC,-0.00641 E-score
24,AACGATTC,-0.169 E-score
25,TAGGCCAA,-0.316 E-score

row,Sequence,binding signal
1,TTGCACAA,-0.133 E-score
2,ATCATTCA,-0.202 E-score
3,AAATAAGG,-0.107 E-score
4,ACGTCACC,-0.0827 E-score
5,GAACTACA,0.225 E-score
6,CAGTCTGG,-0.143 E-score
7,AGCTACGG,-0.07 E-score
8,AAGGATCG,0.123 E-score
9,CGGTAAAG,0.00359 E-score
10,AGATGCGA,-0.0197 E-score
11,AGGCGGTA,-0.0737 E-score
12,AGCCTGAA,-0.129 E-score
13,ACTGAGAG,0.108 E-score
14,AGCTGACC,-0.00218 E-score
15,CCAGGAGC,-0.105 E-score
16,ATCAAACA,0.105 E-score
17,AACTGGCC,-0.148 E-score
18,GGATCCCC,0.298 E-score
19,TGCTGTAA,-0.14 E-score
20,AAATCGCT,-0.26 E-score
21,ATGGGGAA,0.0287 E-score
22,AGATCGCT,-0.17 E-score
23,CGTCTTGC,0.0347 E-score
24,CCATACGC,0.0455 E-score
25,AGATTGGA,-0.201 E-score

row,Sequence,binding signal
1,CTCGTACA,0.17 E-score
2,AGCGCGCC,-0.246 E-score
3,TGCGTGAA,-0.0663 E-score
4,AGGTACCC,0.102 E-score
5,CAGCCGTC,-0.301 E-score
6,GATAAGTA,-0.00791 E-score
7,ATTCATCA,-0.206 E-score
8,ACATGACG,-0.128 E-score
9,AATATACG,-0.165 E-score
10,GATAGTGA,-0.0494 E-score
11,AATTACGA,0.112 E-score
12,GACATCAA,-0.104 E-score
13,AAAGAAGT,-0.0938 E-score
14,AAGCCAGA,-0.199 E-score
15,AAAGAAAG,-0.272 E-score
16,AAGTCGGC,-0.152 E-score
17,ATTATAAT,-0.176 E-score
18,CGCCACCG,-0.0681 E-score
19,TATAACAA,0.0994 E-score
